From ChEMBL document CHEMBL4888484, “Replenishing the malaria drug discovery pipeline: Screening and hit evaluation of the MMV Hit Generation Library 1 (HGL1) against asexual blood stage Plasmodium falciparum ,using a nano luciferase reporter read-out” (2022)
Out of some 150,000 compounds screened, about 540 (0.36%) showed an effect of 50% or more. Some of the results follow.

Tested on: Plasmodium falciparum
Test: Primary screen in NF54 nanoGlo assay, in single point, at 2uM, 72h; a lower Z score goes with more inhibition
Assay type: functional, Erythrocyte
Details: timepoint 72 hour

Row | Structure (SMILES) | % Inhibition | Z score | % Inhibition (2 µM) | Z score (2 µM)
1 | C[C@H]1CN(C)CCN1C(=O)c1ccc2c(c1)OCCCO2 | -13% | 1.2 | – | –
2 | C[C@]1(O)c2cc(F)ccc2-n2ccnc21 | -3% | 0.54 | – | –
3 | CC[C@@](C)(CC(=O)OC)NC(=O)c1ccccc1C | -1% | 0.08 | – | –
4 | O=C(NCc1cccnc1)[C@H]1CCCN(c2nccn3nc(-c4ccccc4Cl)cc23)C1 | -5% | 0.54 | – | –
5 | CN(CCn1ccc(=O)c2sccc21)Cc1ccc(F)cc1 | -12% | 1.36 | – | –
6 | COc1cc(C(C)NC2CCc3nc(C)cn3C2)ccc1F (stereo not given) | 17% | -2.24 | – | –
7 | CC1CC1C(=O)N1CCCC1c1nnc2ccccn12 (stereo not given) | -2% | 0.39 | – | –
8 | COCC1(C2CCC2)CN(C(=O)N[C@H](C)C2CCCc3ccccc32)C1 (stereo not given in full) | -11% | 2.12 | – | –
9 | COc1ccc(Cl)cc1C(O)CNC(=O)[C@@H]1CCCC[C@@H]1N1CCCC1=O (stereo not given in full) | -2% | 0.22 | – | –
10 | COC(=O)C1=C(C(=O)OC)SC(=C2C(=S)C(C)(C)N(C(=O)Cc3ccccc3)c3cc(C)ccc32)S1 | 10% | -1.69 | – | –
11 | CCc1nc(C[C@H]2CN(C(=O)Nc3ccc(OC)nc3OC)CCO2)no1 | -10% | 1.33 | – | –
12 | CC(C)(CNC(=O)CN1CCC(C(F)(F)F)CC1)NS(C)(=O)=O | 7% | -1.02 | – | –
13 | CCN(C)c1cccc(NC(=O)NC[C@H](O)C(C)C)c1 | 32% | -3.64 | – | –
14 | Cc1cc(C(=O)N[C@H]2CN(C(=O)c3cc(C)oc3C)C[C@@H]2C2CC2)no1 | 9% | -0.89 | – | –
15 | N#Cc1ccccc1N1CCN2c3ccc(C(F)(F)F)cc3CC(C(=O)NCC3CC3)C2C1 (stereo not given) | 0% | -0.07 | – | –
16 | Cc1cccc(NC(=O)Cn2cc(-c3ccccc3)c3ncn(C4CC4)c(=O)c32)c1C | -7% | 1 | – | –
17 | O=C(N1CCC(OC2CCCCC2)CC1)[C@]1(O)CCOC1 | -8% | 0.7 | – | –
18 | CNc1ncccc1C(=O)NC[C@H]1CCCN(Cc2c[nH]cn2)C1 | -5% | 0.97 | – | –
19 | CCC(CC)N(C(=O)c1oc(C)nc1C)[C@H]1CCCc2cccnc21 | 1% | -0.17 | – | –
20 | COc1ccc(C(N)=NOCC(=O)NCCc2ccccc2)cc1 | -7% | 1.26 | – | –
21 | Cc1c(CCO)c(=O)n(C)n1C(=O)c1ccc(Cl)cc1 | 37% | -0.85 | – | –
22 | CC(C)c1nc(C(=O)NCc2ccc(F)cc2)c[nH]1 | 2% | -0.32 | – | –

Row | Structure (SMILES) | % Inhibition | Z score | % Inhibition (2 µM) | Z score (2 µM)
23 | N#CC1(NC(=O)c2ccc3c(c2)OCCO3)CCCC1 | 9% | -1.19 | – | –
24 | COc1ccc(Cl)cc1C(=O)N[C@@H]1CCCC[C@H]1S(C)(=O)=O | -7% | 0.79 | – | –
25 | CCN(CC)Cc1ccc2c(c1)CN(C(=O)c1ccc(C)nc1)CCO2 | -14% | 1.48 | – | –
26 | O=C(Nc1ccc2nccnc2c1)c1[nH]nc2c1CCCC2 | 9% | -1.22 | – | –
27 | C[C@H]1CN(c2ncc(Cl)cn2)CCN1S(C)(=O)=O | 12% | -1.63 | – | –
28 | O=C(O)CCC(=O)Nc1sccc1C(=O)NC1CCCC1 | 0% | 0.08 | – | –
29 | COc1ccc(CN([C@@H](C)C2CC2)S(=O)(=O)c2cc3c(cc2Cl)OCCO3)cc1 | -9% | 1.62 | – | –
30 | Cc1ccsc1CNC(=O)NC1CCCCC1CO (stereo not given) | 24% | -2.79 | – | –
31 | O=C(NC1CCc2cn[nH]c2C1)N1CC(O)CC1c1ccccc1 (stereo not given) | -7% | 0.78 | – | –
32 | CN(C)c1cccc(C(=O)Nc2ccccc2-c2nc3ccccc3s2)c1 | -4% | 0.5 | – | –
33 | CN(C(=O)c1cc(C#N)cn1C)c1c(F)cccc1C(N)=O | -10% | 1.43 | – | –
34 | Cc1scc(C(=O)N[C@@](C)(Cn2cccn2)C(N)=O)c1C | 6% | -1.19 | – | –
35 | CCOc1cc(N2CCN(C)CC2)ccc1NC(=O)c1ccc[nH]1 | -8% | 1.24 | – | –
36 | CCCc1cc(=O)n(CC(=O)N2CCN(c3cc4c(nn3)CCC4)CC2)cn1 | -9% | 1.7 | – | –
37 | CS(=O)(=O)C1(C(=O)Nc2n[nH]c3ccc(F)cc23)CCC1 | -5% | 0.74 | – | –
38 | Cc1nn2c(CN3CCC(c4nnc5n4CCCC5)CC3)c(C(C)C)nc2s1 | -5% | 0.68 | – | –
39 | CCC1C(C)CCN1S(=O)(=O)c1csnc1C(=O)OC (stereo not given) | 2% | -0.23 | – | –
40 | O=C(N[C@H]1CC(=O)N(c2ccc(F)cc2)C1)c1ccco1 | -5% | 0.94 | – | –
41 | CCc1ccsc1CNCc1cc(C2CCNCC2)no1 | -2% | 0.38 | – | –
42 | CCN=C(NCc1ccccc1CN1CCOCC1)NC1CC1 | -6% | 0.52 | – | –
43 | CC(C)CCC1CCN(C(=O)Cc2ccc(-n3cnnc3)cc2)CC1 | -12% | 2.01 | – | –
44 | Cc1ccc(C(=O)NC2CCC(F)C2)o1 (stereo not given) | -5% | 0.47 | – | –

Row | Structure (SMILES) | % Inhibition | Z score | % Inhibition (2 µM) | Z score (2 µM)
45 | CCS(=O)(=O)C1CN(C(=O)[C@H]2CCCOC2)C1 | -7% | 1.44 | – | –
46 | CN(Cc1cnn(C)c1)C(=O)c1cc(S(=O)(=O)N2CCCCC2)ccc1N1CCCC1 | -16% | 1.82 | – | –
47 | COc1ccc(OCCC(=O)OCC2CCN(C(=O)OC(C)(C)C)CC2)cc1 | 0% | 0 | – | –
48 | CC(C)c1ccc([C@@H]2CC(=O)c3c(nc4c(cnn4-c4ccc(Cl)cc4)c3N)C2)cc1 | 9% | -1.58 | – | –
49 | Cc1cccnc1Cn1ccnc1-c1ccoc1 | -10% | 1.84 | – | –
50 | COc1ccc(CNC(=O)Nc2ccc3nc(N4CCN(C)CC4)cc(C)c3c2)cc1OC | -2% | 0.19 | – | –
51 | O=C(Nc1nc2c(s1)CN(C(=O)Cn1cnc3ccccc3c1=O)CC2)[C@@H]1CCCO1 | -12% | 1.74 | – | –
52 | CN(C)C(=O)c1cncc(NCc2ccc3nsnc3c2)n1 | -8% | 0.88 | – | –
53 | CCN(CC)S(=O)(=O)c1csc(C(=O)Nc2ccon2)c1 | -21% | 2.48 | – | –
54 | CCNC(=O)[C@H]1CCN(S(=O)(=O)c2cc(-c3cc(C(F)(F)F)on3)ccc2C)C1 | 6% | -0.9 | – | –
55 | O=C([C@@H]1CC[C@H](C(=O)N2CCOC3CCCC32)C1)N1CCOC2CCCC21 (stereo not given in full) | -5% | 0.73 | – | –
56 | CCc1oc2c(NC(=O)N3C[C@H]4CC[C@@H](C3)N(C)C4=O)cccc2c1C | -9% | 1.59 | – | –
57 | COc1cc(C(=O)Nc2ccc(Oc3cccc4[nH]ccc34)nc2)cc2c1OCCCO2 | – | – | 4% | -1.04
58 | CN(C)[C@H]1CCC[C@@H]1Nc1ncnc2ccccc12 | 4% | -0.67 | – | –
59 | O=S(=O)(c1cccnc1N1CCC[C@H]1c1cccs1)N1CCCCC1 | -9% | 0.91 | – | –
60 | COc1ccc2nc(O)c(C(=O)Nc3ccc4c(c3F)CCNC4)cc2c1 | 99% | -18.01 | – | –
61 | O=C1O[C@H]2CN(c3nccs3)C[C@H]2N1CCCN1CCOCC1 | 0% | -0.03 | – | –
62 | COc1ccc(OCc2nc(C)cc(=O)n2CC(=O)Nc2cc(F)cc(F)c2)cc1 | -6% | 0.89 | – | –
63 | COCCN1C(=O)[C@@H]2CC[C@H]1CN(C(=O)CCn1nc(C)c(C)c1C)C2 | -3% | 0.39 | – | –
64 | CCn1cc(NC(=O)c2ccc3nccc(C)c3c2)cn1 | -9% | 1.32 | – | –
65 | CC(NC(=O)[C@H]1CCC(=O)N1Cc1ccccc1)c1ccccc1 (stereo not given in full) | -12% | 1.37 | – | –
66 | Cn1cc2ncn(Cc3cc(C4CC4)[nH]n3)c(=O)c2n1 | -15% | 1.65 | – | –

Row | Structure (SMILES) | % Inhibition | Z score | % Inhibition (2 µM) | Z score (2 µM)
67 | Cc1cccc(NC(=O)Cn2c(C)ncc(C(=O)NC3CCCC3)c2=O)c1C | -11% | 1.73 | – | –
68 | COc1cc(F)c(NCc2csc(C3CC3)n2)cc1OC | 35% | -4.68 | – | –
69 | O=C(CN1C(=O)COc2ccc(Cl)cc21)Nc1cnccc1O | -7% | 0.63 | – | –
70 | COc1ccc(-c2cc(N3CC[C@H](NC(=O)c4cccc(Br)c4)C3)[nH]n2)cc1 | -12% | 1.24 | – | –
71 | CC(C)Cn1ncc2ncccc2c1=O | 6% | -0.93 | – | –
72 | CCn1ncc(C(=O)N2CC[C@H](c3nc(N(C)C)ncc3C(=O)NCCOC)C2)c1C | -3% | 0.41 | – | –
73 | Cc1ccc2oc(NCC3CCCC34NC(=O)NC4=O)nc2c1 (stereo not given) | 14% | -1.64 | – | –
74 | CC(C)(c1ccccc1)c1ccc2oc(-c3ccc(-c4nc5cc(C(C)(C)c6ccccc6)ccc5o4)s3)nc2c1 | -10% | 2.03 | – | –
75 | O=C(NC[C@H]1COCCO1)c1ccc(OCC(=O)N2CCCCC2)cc1 | -5% | 0.85 | – | –
76 | COC1CC(c2nc(C)no2)N(CCC(C)c2ccccc2)C1 (stereo not given) | 1% | -0.14 | – | –
77 | Clc1cccnc1OCc1cncs1 | -7% | 0.88 | – | –
78 | c1ccc(Cc2ccc(OCCOCCN3CCOCC3)cc2)cc1 | -3% | 0.61 | – | –
79 | O=C(c1ccncc1F)N1CCCCCO1 | -17% | 1.74 | – | –
80 | CCCCOc1ccccc1CN1CC[C@H](O)C1 | -3% | 0.39 | – | –
81 | Nc1c(C(=O)NCc2ccc3c(c2)OCO3)sc2nc(-c3ccc4c(c3)OCO4)ccc12 | -4% | 0.52 | – | –
82 | CC(C)COCCCNS(=O)(=O)C1CCOC1C (stereo not given) | -11% | 1.32 | – | –
83 | Cc1ccc(S(=O)(=O)N2CCC3(CC2)N[C@@H](C(C)C)C(=O)N3Cc2ccc3c(c2)OCO3)cc1 | -9% | 1.53 | – | –
84 | CCc1ccc(C2=NN([C@H]3CCOC(C)(C)C3)C(=O)CC2)cc1 | 0% | -0.04 | – | –
85 | COc1ccc(C2=C(C)C(N3CCN(Cc4ccccc4)CC3)=NS2(=O)=O)cc1 | 0% | 0.02 | – | –
